# In the supplement of paper PMC3724861:
# The other results are listed elsewhere or left out.
# Test system: T1, Caupolican (Caup) homeodomain DNA-binding domain
# T1 sequence: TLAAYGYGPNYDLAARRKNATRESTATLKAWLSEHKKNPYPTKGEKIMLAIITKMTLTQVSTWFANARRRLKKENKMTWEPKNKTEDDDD
# Assay: PBM E-score (8-mer, recovered from the published 9-mer minima) (E-score (dimensionless, -0.5 to 0.5)); Drosophila protein; higher = stronger relative binding preference, active = 0.31 or more
# In short: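 An enrichment score, with higher meaning stronger, expresses relative binding preference for each short DNA word. The protein used was Caup's homeodomain DNA-binding domain (residues 214-303), produced by in vitro transcription and translation and tested at 100 nM on custom-designed protein binding microarrays. The 8-mer values were recovered from published 9-mer scores, each equal to the lower of its two constituent 8-mer scores.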
row,Sequence,PBM E-score
1,TCCACTAA,inactive: 0.00095
2,AAGGGCCA,≥ -0.112
3,GGTTCAAC,inactive: -0.0443
4,AAGATAGT,inactive: 0.0255
5,GAACACGA,active: 0.32
6,ACAAGCCG,inactive: 0.146
7,ATAGAGTA,inactive: 0.0752
8,TCGACACA,inactive: 0.232
9,GGTGCGAA,inactive: -0.039
10,ACCATTCA,inactive: 0.0576
11,CAACGCGG,inactive: -0.122
12,ACAGCCGC,inactive: -0.149
13,CCCAGATA,inactive: -0.142
14,ATTGACCG,inactive: 0.0782
15,ATCTTATA,inactive: 0.0876
16,CCAGCTCA,inactive: -0.14
17,ACTTTGTC,inactive: 0.086
18,CCGGCTGA,inactive: -0.126
19,CACTACCG,inactive: -0.0583
20,GGGGCGTA,inactive: -0.201
21,AAGAAAAG,inactive: 0.0402
22,TCGTACAA,active: ≥ 0.37
23,CCAAGCCA,inactive: -0.112
24,AATAACAA,inactive: 0.28
25,GAAGGCCA,inactive: -0.295

row,Sequence,PBM E-score
1,CACTACTG,inactive: 0.086
2,ACAGTATC,inactive: 0.172
3,AGCTAACT,inactive: -0.00598
4,ACGCTTGG,inactive: -0.0244
5,CTGCTTGA,inactive: -0.0343
6,AGATAGAC,inactive: 0.053
7,GAATCAGA,inactive: 0.085
8,ATATATGC,inactive: 0.118
9,CAAGATTC,inactive: 0.00713
10,ACGCAGAT,inactive: 0.0203
11,CTCCTTCC,inactive: -0.0839
12,CAAGGGCG,inactive: -0.0867
13,ATCTGGGA,inactive: -0.113
14,CGCGCATC,inactive: -0.0873
15,GACGGACC,inactive: -0.0214
16,GCTATGGA,inactive: -0.0501
17,AGGGAACT,inactive: -0.0999
18,ATGAATAA,inactive: 0.173
19,CGGTTTAG,inactive: -0.0743
20,AGCAGAAT,≥ 0.0258
21,TCCAGCAA,≥ 0.0234
22,AGTCGGAA,inactive: 0.015
23,GGGTGACA,inactive: 0.059
24,ATGTCAAC,active: 0.324
25,AGGATCCG,inactive: -0.0867

row,Sequence,PBM E-score
1,TAAACACA,≥ 0.273
2,AATGATTG,inactive: 0.142
3,AGGTTCGA,≥ 0.0215
4,ACAAAGCC,inactive: -0.0102
5,AGATCGGG,inactive: -0.2
6,GCTCTAAA,inactive: -0.0235
7,ATAAAAGA,inactive: 0.0174
8,CCTATTCC,inactive: -0.00635
9,GCGTCGGA,inactive: -0.0823
10,CTACGATA,inactive: 0.1
11,GTGGCGCA,inactive: -0.102
12,ATCACGTC,inactive: 0.119
13,AGACTGTA,inactive: 0.0542
14,ACTGTCGG,inactive: -0.0828
15,AATGGTGG,inactive: -0.0687
16,AATGAAAA,inactive: -0.00519
17,TCCTGAAA,inactive: -0.0805
18,CCGTCCAC,inactive: -0.0851
19,AGGTTATC,inactive: -0.00432
20,CTGTGCAC,inactive: -0.0981
21,CAACAAGG,active: 0.338
22,AAAAATGA,inactive: 0.113
23,GCCACAGA,inactive: -0.0438
24,CAACTATC,inactive: 0.00352
25,CGAAACCG,inactive: -0.0748

row,Sequence,PBM E-score
1,AATGGGCA,inactive: -0.0275
2,GGTGGCAC,inactive: -0.208
3,CTCCATCA,inactive: -0.0502
4,GCCGTTAC,inactive: -0.00869
5,CTCCTGTC,inactive: 0.109
6,ATAAGGAG,inactive: -0.0451
7,AGCTACGG,inactive: -0.068
8,TCGCGAGA,inactive: -0.106
9,GACGATGC,inactive: 0.0108
10,AATAACGG,inactive: -0.0242
11,CCACCCAA,inactive: -0.0435
12,GCAACACC,inactive: 0.0665
13,ATTTTTAA,inactive: 0.0998
14,CAAAGGAC,inactive: -0.0362
15,CGATGGTA,inactive: -0.00639
16,AGTCAAGC,inactive: -0.0991
17,ACGCGCCA,inactive: -0.111
18,TCGCTCAA,inactive: 0.0128
19,GGCGATAC,inactive: -0.00217
20,TCGCAAAA,inactive: 0.0116
21,AAGCATGA,inactive: 0.0838
22,CTTACCGA,inactive: -0.05
23,CCAGGGGA,inactive: -0.272
24,TCGCGACA,inactive: 0.153
25,TCGTTTAA,inactive: 0.1

row,Sequence,PBM E-score
1,AGAATTTA,≥ 0.126
2,CTGGGATA,inactive: -0.0847
3,AATGATGA,inactive: 0.172
4,ACGTATGC,inactive: 0.0521
5,TCTAATAA,inactive: 0.177
6,ATATATAG,inactive: 0.173
7,AGCCACCA,inactive: -0.126
8,AAGGGTGG,inactive: -0.132
9,ATTGAGGA,≥ 0.0037
10,GATCAACC,inactive: -0.0182
11,GTTCTTTA,inactive: 0.129
12,TAAGAACA,active: 0.313
13,ACACAGTG,inactive: 0.187
14,GGGGCACA,inactive: -0.1
15,GGCAAGAA,inactive: -0.0502
16,GAGCAGGA,inactive: 0.0596
17,GATACGCA,inactive: -0.0244
18,ACCCTGAA,inactive: 0.05
19,AGCAACGA,inactive: 0.0654
20,GTTCGCTA,inactive: 0.0799
21,ATTCATGC,inactive: 0.0406
22,ATAGGGAC,inactive: -0.0208
23,GCCTCGAA,inactive: -0.0979
24,TAGGCCTA,≥ -0.0475
25,AAAGCCTG,inactive: -0.131

row,Sequence,PBM E-score
1,GCGTTGCA,inactive: -0.0193
2,AGATAGTG,inactive: 0.0848
3,GCTACCAA,inactive: 0.0208
4,GCCGCGCC,inactive: -0.299
5,ACTGGAGG,inactive: -0.177
6,ATGTTCCA,inactive: 0.289
7,AGGCTTCA,inactive: -0.136
8,ACTCTGGA,inactive: 0.0189
9,CTGAATTC,inactive: 0.0344
10,CCTAGAAG,inactive: -0.176
11,AACCTCAC,inactive: -0.037
12,GCCAAGCC,inactive: -0.216
13,CCACCACG,inactive: -0.124
14,CCAGTCTC,inactive: -0.183
15,ACTGCGCT,inactive: -0.0333
16,TCGTACCA,inactive: 0.0924
17,AATGTGAA,inactive: 0.174
18,ACGGATTA,inactive: 0.101
19,ATATCATC,inactive: 0.145
20,CTAAACCA,inactive: -0.0274
21,CTATTACA,active: 0.346
22,AAGGGTCC,inactive: -0.33
23,GTGGACAA,inactive: 0.167
24,CGAGTGTC,inactive: -0.106
25,GAACCTCA,inactive: -0.0416

row,Sequence,PBM E-score
1,ACTGGTGG,inactive: -0.0801
2,GGGTCGGA,inactive: -0.217
3,GAAGTACA,inactive: 0.269
4,CACGCTAC,inactive: 0.00855
5,AAAGGAGC,inactive: -0.111
6,CCAGCTAC,inactive: -0.0516
7,CGATCGCC,inactive: -0.0688
8,AACGTCCC,inactive: -0.076
9,TAAGCCCA,inactive: -0.0537
10,AAGACTCC,inactive: -0.184
11,ACTAGCCA,inactive: 0.0322
12,CGGGTGTC,inactive: -0.00838
13,CAGCTTTA,inactive: -0.0203
14,GGTCCCGA,inactive: -0.138
15,CGCGCTAC,inactive: -0.0135
16,GCCGGATA,inactive: -0.0456
17,GGGTTTCA,inactive: 0.013
18,TGTCAACA,active: ≥ 0.324
19,AAACTTGG,inactive: -0.0323
20,ATAGCCTC,inactive: -0.0831
21,ACTCGGTG,inactive: -0.022
22,CCTACTGA,inactive: -0.0137
23,ACACGGAG,inactive: 0.131
24,CTCTTTCC,inactive: -0.21
25,CAGACAAC,inactive: 0.249

row,Sequence,PBM E-score
1,ATGTAACC,inactive: 0.275
2,GGTGCGGA,inactive: -0.0221
3,GCCTTACC,inactive: -0.135
4,AGTTCCGG,inactive: -0.065
5,AACTACAA,active: 0.342
6,AATGATGT,inactive: 0.249
7,TGAGTCCA,inactive: -0.0996
8,GAAGCCTC,inactive: -0.238
9,GCACCGTA,inactive: -0.0837
10,ATCCAGCG,inactive: -0.0713
11,AGGGTACT,inactive: 0.017
12,CTAGTATA,inactive: 0.179
13,ATTCGGAA,inactive: 0.0171
14,ACGAACCT,inactive: -0.0743
15,CGCACAAA,inactive: 0.0175
16,AGACTCAT,inactive: 0.0388
17,TAGACATA,inactive: 0.246
18,ACTCAGAG,inactive: -0.132
19,CGCGCTTC,inactive: -0.17
20,CGGCTCCC,inactive: -0.29
21,ATAAGCTG,≥ 0.0802
22,CACCTGAC,inactive: 0.0311
23,ATTCGGGG,inactive: -0.178
24,TCTCAAAA,inactive: 0.107
25,GCCAAGAA,inactive: -0.0865

row,Sequence,PBM E-score
1,CAAGTGGC,inactive: -0.0572
2,CGGAGCGA,inactive: -0.0735
3,AACCATAT,inactive: 0.0186
4,GGTTAGGA,inactive: -0.158
5,AACAGCTT,inactive: 0.0597
6,ATCGCGCC,inactive: -0.194
7,GGAGTAAA,≥ 0.089
8,CCTGCCAA,inactive: -0.0938
9,CTACTTGC,inactive: 0.0629
10,AGAGGACG,inactive: -0.0104
11,CTATACAC,inactive: 0.0914
12,TATCTCCA,≥ 0.00159
13,AAGTCCTA,inactive: -0.00473
14,ACCCCGAA,inactive: -0.106
15,AAACAGGG,inactive: 0.0426
16,ACGCTTGC,inactive: -0.0583
17,AAAGACGC,inactive: -0.151
18,ACGATACA,inactive: 0.241
19,GTGAACAA,inactive: 0.238
20,AATCTGTC,inactive: 0.114
21,ACTACCCC,inactive: -0.0237
22,AGTGCTAG,inactive: -0.0231
23,GAACGGCC,inactive: -0.169
24,ATCGGAGA,inactive: -0.0748
